# Data from the BET-seq Pho4 binding data (Le et al. 2018).
# The other results are listed elsewhere or left out. Values were computed here from the reads of four pooled replicates and scatter widely.
# Biological target: T1, Pho4 (S. cerevisiae) (UniProt P07270)
# T1 sequence: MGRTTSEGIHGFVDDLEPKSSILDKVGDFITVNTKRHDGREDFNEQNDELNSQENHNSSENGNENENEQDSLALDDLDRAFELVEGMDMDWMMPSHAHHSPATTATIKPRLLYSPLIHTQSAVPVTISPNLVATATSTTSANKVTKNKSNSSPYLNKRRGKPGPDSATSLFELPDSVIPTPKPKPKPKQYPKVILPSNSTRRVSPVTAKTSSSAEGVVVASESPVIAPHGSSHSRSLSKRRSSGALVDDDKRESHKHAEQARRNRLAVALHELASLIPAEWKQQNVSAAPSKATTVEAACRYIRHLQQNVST
# Test: relative binding free energy (BET-seq); higher = weaker binding
# Details: reference: library average
row,Sequence,relative binding free energy [kcal/mol]
1,TAGGGCACGTGCTCGG,-0.26
2,TGTTTCACGTGACGAG,0.15
3,TTGGGCACGTGCGGAT,-0.01
4,TAGCTCACGTGTGTGA,0.27
5,AATGTCACGTGAAGGC,0.45
6,TATTTCACGTGGAATA,0.24
7,TTGATCACGTGGCATG,-0.01
8,ATATTCACGTGTTGAG,0.12
9,TGGCACACGTGGTTCG,-0.03
10,GAGGGCACGTGGGCGA,-0.42
11,TTATTCACGTGTTTAT,0.17
12,GGGAACACGTGCGGGG,0.01
13,TGTGCCACGTGGGTGA,-0.34
14,TGGGTCACGTGTGCTA,0.02
15,AGGTTCACGTGGAAGC,0.29
16,TTCGACACGTGTAAGT,0.18
17,TGTTTCACGTGAAGCA,0.39
18,TTTTTCACGTGGGAGT,0.2
19,ATGGGCACGTGCTGTT,-0.19
20,GGTAACACGTGCGGAG,0.15
21,TTTGTCACGTGCGGCA,0.06
22,CGTGGCACGTGTGTGT,-0.11
23,GACAGCACGTGTGGTG,0.22
24,TGGGTCACGTGATTAC,0.16
25,TAGGACACGTGTAAAG,0.15

row,Sequence,relative binding free energy [kcal/mol]
1,TTGGACACGTGGGCTG,-0.14
2,GGTTTCACGTGTAGCC,0.47
3,TTTACCACGTGCGGGT,-0.09
4,AGGGTCACGTGTGAGT,0.22
5,ATATTCACGTGGGCGA,0.17
6,GTGGGCACGTGTGTAC,-0.03
7,GTGAGCACGTGTTCTT,0.01
8,CTCATCACGTGGTGGG,-0.11
9,TATCACACGTGTTGTT,-0.01
10,GGCGGCACGTGTATTG,0.03
11,TAAATCACGTGTGTGG,0.12
12,AGTTCCACGTGGTTGG,0.08
13,TTCTACACGTGTGGGC,0.13
14,ATTGGCACGTGCTGTT,-0.02
15,GAGCGCACGTGAGATG,0.37
16,TGTGCCACGTGAAGTG,0.03
17,TATTACACGTGTTGGC,0.12
18,TGTGTCACGTGCTGTT,0.01
19,GTTTACACGTGAATTT,0.24
20,AAGTTCACGTGTTAGA,0.2
21,TTAGTCACGTGTGTTC,0.03
22,TTTGTCACGTGTTTGT,0.15
23,CCAGTCACGTGTGGGT,0.02
24,ATGGACACGTGGGGTT,0
25,ATTGTCACGTGAGAGA,0.28

row,Sequence,relative binding free energy [kcal/mol]
1,TGTGGCACGTGGTGGC,-0.07
2,ATTTGCACGTGGGCGA,-0.24
3,TCCGTCACGTGGGGGG,-0.12
4,AGAAGCACGTGGTATT,-0.14
5,TTCTGCACGTGGTGTC,-0.11
6,TGGGTCACGTGAAGCG,0.22
7,TGGTTCACGTGCGTGA,0.21
8,TGGAACACGTGATGGC,0.13
9,AGGGGCACGTGGTAGT,-0.11
10,GTCTTCACGTGTATGG,0.25
11,CTATTCACGTGGAGTA,0.23
12,AGATGCACGTGGTGGA,-0.04
13,TGTGACACGTGCCGGT,-0.03
14,GTTGGCACGTGGGAAG,-0.02
15,TTAAACACGTGGTCTG,-0.08
16,TCGCGCACGTGGGGTA,-0.34
17,TGGTCCACGTGCCGGG,-0.07
18,GTTTTCACGTGCGTCT,0.21
19,GTTAGCACGTGTAGGC,0.03
20,TAGACCACGTGAGGGT,0.19
21,AACGTCACGTGTGGGT,0.07
22,GAGTTCACGTGTTACG,0.34
23,TTTTACACGTGATGGC,0.25
24,GTTTGCACGTGTGAAA,0.22
25,GTGATCACGTGTTAGG,0.31

row,Sequence,relative binding free energy [kcal/mol]
1,ATGGGCACGTGCGCAG,-0.27
2,TAACTCACGTGGTATG,0.21
3,GTTTCCACGTGGATTT,0.1
4,AATTGCACGTGGCTTT,-0.17
5,AGGTTCACGTGGGAGA,0.18
6,GAATGCACGTGTTTAT,-0.01
7,TTAGGCACGTGTGGGG,-0.01
8,GATTACACGTGGGATT,0.19
9,TCTTGCACGTGAGATG,0.26
10,TGTAACACGTGTAGCT,0.05
11,CGGGTCACGTGTGGGT,0.16
12,TTTGCCACGTGTATAT,-0.06
13,TTAGGCACGTGCAATG,-0.14
14,AGTAACACGTGGTTTG,-0.08
15,TTGGTCACGTGATATA,0.29
16,GGGGTCACGTGGCCTA,0.08
17,TGGGTCACGTGCTCGG,0.03
18,AGTATCACGTGTGTCA,0.23
19,GGGTTCACGTGATAGA,0.31
20,GCATTCACGTGGTGAT,0.22
21,ATGTGCACGTGTGGAC,0.12
22,TTGAACACGTGGAGGT,0.01
23,CGTGTCACGTGTAAGA,0.1
24,GTGCGCACGTGTTTAT,-0.04
25,GTATGCACGTGTTTAG,-0.03

row,Sequence,relative binding free energy [kcal/mol]
1,CGTGTCACGTGGGGCA,-0.1
2,GTCTACACGTGAAGGG,0.22
3,TTATTCACGTGCTAGT,0.07
4,TTGGTCACGTGACGGG,0.16
5,GGAGTCACGTGACGTT,0.23
6,ATGGTCACGTGGCGAG,0.12
7,TTGGACACGTGTGTTT,0.12
8,TGCGACACGTGGTGAT,0
9,GCATGCACGTGGGTTA,-0.19
10,TAGTGCACGTGGGTAT,-0.14
11,ATGGCCACGTGGAGCG,-0.08
12,GGTGCCACGTGGCGTT,-0.17
13,GATATCACGTGGGTAT,0.11
14,AAATTCACGTGAAGGT,0.21
15,GGGGTCACGTGTTGGC,0.18
16,GGGTGCACGTGTACTG,-0.12
17,TTATCCACGTGGGGCG,-0.14
18,TCGGACACGTGACGGG,0.22
19,GTTGTCACGTGGCTCA,0.03
20,GTGTGCACGTGATCGG,0.09
21,ATATTCACGTGGTAAT,0.19
22,TACGACACGTGTGGGT,0.03
23,TGGAACACGTGGGAGA,-0.03
24,TAGAGCACGTGGGAAT,-0.15
25,CGAGGCACGTGGGGCA,-0.36

row,Sequence,relative binding free energy [kcal/mol]
1,GTTTACACGTGTTTGC,0.22
2,AGTTTCACGTGCTTCA,0.36
3,TTTGACACGTGCTGAT,-0.06
4,CGGTGCACGTGGCGGA,-0.2
5,AGTAGCACGTGAGGTG,0.08
6,GGGTGCACGTGTCTTT,-0.01
7,TGTTTCACGTGAAGCT,0.34
8,TCGTGCACGTGGTTAG,0.03
9,TTGGACACGTGGTTAA,0.11
10,TTGACCACGTGTTATG,0
11,CGTAACACGTGTGAGG,0.06
12,GTAGACACGTGATGTA,-0.01
13,TGTAACACGTGTGGTC,0.09
14,GATGTCACGTGTCGGG,0.11
15,ATAGGCACGTGGCGGA,-0.19
16,GGAGGCACGTGTGGGT,-0.02
17,GTATGCACGTGAGGGC,0.2
18,GACGGCACGTGGTCGT,0
19,TTAGGCACGTGCTCGT,-0.1
20,AGTTGCACGTGCAGCG,0.13
21,TTTTTCACGTGACTTC,0.54
